Assay results published in article PMC9911399, “Two distinct binding modes provide the RNA-binding protein RbFox with extraordinary sequence specificity”.
Numbering of substitutions follows the chain as printed; changes in the protein carry UniProt numbers. The list shows a part of the results.

T1: RBFOX1 RRM RbFoxmut (Fox-RRM*) (Homo sapiens, UniProt Q9NWB1 109-208, R118D;E147R;N151S;E152T)
T1 sequence: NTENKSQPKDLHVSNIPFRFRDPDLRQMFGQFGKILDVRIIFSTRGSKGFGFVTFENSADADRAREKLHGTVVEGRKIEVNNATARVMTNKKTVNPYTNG

B1: AGAUACC (DNA:RNA)
RNA: GGGAGACCGGAAUUCAGAUUGUCCAGAUACCUUAAAUCCCGUCGUAGCCACCA
DNA 1: CAATCTGAATTCCGGTCTCCC
DNA 2: TGGTGGCTACGACGGGATT
B2: AAUUGCG (DNA:RNA)
RNA: B1 RNA with G26A, A27U, A29G, C31G
DNA 1: CAATCTGAATTCCGGTCTCCC
DNA 2: TGGTGGCTACGACGGGATT
B3: GUAGGAC (DNA:RNA)
RNA: B1 RNA with A25G, G26U, U28G, A29G, C30A
DNA 1: CAATCTGAATTCCGGTCTCCC
DNA 2: TGGTGGCTACGACGGGATT
B4: AGGUGUU (DNA:RNA)
RNA: B1 RNA with A27G, A29G, C30U, C31U
DNA 1: CAATCTGAATTCCGGTCTCCC
DNA 2: TGGTGGCTACGACGGGATT
B5: AAUCGGU (DNA:RNA)
RNA: B1 RNA with G26A, A27U, U28C, A29G, C30G, C31U
DNA 1: CAATCTGAATTCCGGTCTCCC
DNA 2: TGGTGGCTACGACGGGATT
B6: AACGCCA (DNA:RNA)
RNA: B1 RNA with G26A, A27C, U28G, A29C, C31A
DNA 1: CAATCTGAATTCCGGTCTCCC
DNA 2: TGGTGGCTACGACGGGATT
B7: GUUCCUA (DNA:RNA)
RNA: GGGAGACCGGAAUUCAGAUUGUCCGUUCCUAUUAAAUCCCGUCGUAGCCACCA
DNA 1: CAATCTGAATTCCGGTCTCCC
DNA 2: TGGTGGCTACGACGGGATT
B8: CUAUUCU (DNA:RNA)
RNA: B1 RNA with A25C, G26U, A29U, C31U
DNA 1: CAATCTGAATTCCGGTCTCCC
DNA 2: TGGTGGCTACGACGGGATT
B9: GAGGAUU (DNA:RNA)
RNA: B7 RNA with U26A, U27G, C28G, C29A, A31U
DNA 1: CAATCTGAATTCCGGTCTCCC
DNA 2: TGGTGGCTACGACGGGATT
B10: AACAUAA (DNA:RNA)
RNA: B1 RNA with G26A, A27C, U28A, A29U, C30A, C31A
DNA 1: CAATCTGAATTCCGGTCTCCC
DNA 2: TGGTGGCTACGACGGGATT
B11: ACGUUGG (DNA:RNA)
RNA: B1 RNA with G26C, A27G, A29U, C30G, C31G
DNA 1: CAATCTGAATTCCGGTCTCCC
DNA 2: TGGTGGCTACGACGGGATT
B12: GCUUAAU (DNA:RNA)
RNA: B1 RNA with A25G, G26C, A27U, C30A, C31U
DNA 1: CAATCTGAATTCCGGTCTCCC
DNA 2: TGGTGGCTACGACGGGATT
B13: UAACUCC (DNA:RNA)
RNA: B1 RNA with A25U, G26A, U28C, A29U
DNA 1: CAATCTGAATTCCGGTCTCCC
DNA 2: TGGTGGCTACGACGGGATT
B14: CCAAUCC (DNA:RNA)
RNA: B1 RNA with A25C, G26C, U28A, A29U
DNA 1: CAATCTGAATTCCGGTCTCCC
DNA 2: TGGTGGCTACGACGGGATT
B15: CAAAACC (DNA:RNA)
RNA: B1 RNA with A25C, G26A, U28A
DNA 1: CAATCTGAATTCCGGTCTCCC
DNA 2: TGGTGGCTACGACGGGATT
B16: GUAUUCG (DNA:RNA)
RNA: B1 RNA with A25G, G26U, A29U, C31G
DNA 1: CAATCTGAATTCCGGTCTCCC
DNA 2: TGGTGGCTACGACGGGATT
B17: UAUCACG (DNA:RNA)
RNA: B1 RNA with A25U, G26A, A27U, U28C, C31G
DNA 1: CAATCTGAATTCCGGTCTCCC
DNA 2: TGGTGGCTACGACGGGATT
B18: GUUGUGC (DNA:RNA)
RNA: B7 RNA with C28G, C29U, U30G, A31C
DNA 1: CAATCTGAATTCCGGTCTCCC
DNA 2: TGGTGGCTACGACGGGATT
B19: UGUACUG (DNA:RNA)
RNA: B7 RNA with G25U, U26G, C28A, A31G
DNA 1: CAATCTGAATTCCGGTCTCCC
DNA 2: TGGTGGCTACGACGGGATT
B20: ACGUUUA (DNA:RNA)
RNA: B1 RNA with G26C, A27G, A29U, C30U, C31A
DNA 1: CAATCTGAATTCCGGTCTCCC
DNA 2: TGGTGGCTACGACGGGATT

Biological target: T1, RBFOX1 RRM RbFoxmut (Fox-RRM*)
Experiment: EMSA; HiTS-Eq, 1 nM pool, 10 min; buffer printed only for the single-RNA assays: 10 mM Tris pH 7.5, 150 mM NaCl, 3.4 mM EDTA, 0.001% NP-40, 30 C
Settings: tags: His6 N-terminal (pET28a); label: 5' 32P
Procedure, shortened: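 Purified wild-type or mutant RbFox RRM at increasing concentrations was equilibrated with 1 nM of 5′-radiolabelled RNA carrying 7 randomized nucleotides for 10 min in 50 µL. Unbound RNA was separated by 8% native PAGE and sequenced. Relative association constants came from read-count changes of each RNA species compared with the control reaction, normalised to the cognate motif.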

| Binder | binding signal |
| --- | --- |
| B1 | 0.0936 KA relative to UGCAUGU |
| B2 | 0.127 KA relative to UGCAUGU |
| B3 | 0.0545 KA relative to UGCAUGU |
| B4 | 0.114 KA relative to UGCAUGU |
| B5 | 0.108 KA relative to UGCAUGU |
| B6 | 0.0916 KA relative to UGCAUGU |
| B7 | 0.097 KA relative to UGCAUGU |
| B8 | 0.0879 KA relative to UGCAUGU |
| B9 | 0.0849 KA relative to UGCAUGU |
| B10 | 0.101 KA relative to UGCAUGU |
| B11 | 0.124 KA relative to UGCAUGU |
| B12 | 0.104 KA relative to UGCAUGU |
| B13 | 0.0736 KA relative to UGCAUGU |
| B14 | 0.0425 KA relative to UGCAUGU |
| B15 | 0.0793 KA relative to UGCAUGU |
| B16 | 0.118 KA relative to UGCAUGU |
| B17 | 0.0968 KA relative to UGCAUGU |
| B18 | 0.173 KA relative to UGCAUGU |
| B19 | 0.143 KA relative to UGCAUGU |
| B20 | 0.139 KA relative to UGCAUGU |
